In the supplement of paper PMC3334620:
The full ranking holds about 33,000 sequences; the median of “E-score (-0.5 to 0.5)” is about -0.01, and the highest 2% start at about 0.26. Some of the results follow.

biological target: Ste12 (UniProt P13574); assay: PBM E-score (8-mer binding enrichment) (E-score (-0.5 to 0.5)); higher = stronger / more preferred TF binding; most listed sequences are background and not binding sites; settings: protein concentration: 200 nM; construct: GST-DNA-binding domain
Summary of the method: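 Universal all-10-mer Agilent arrays, fresh or stripped once, were converted to double-stranded form by primer extension. GST-tagged yeast transcription factors from PURExpress in vitro transcription/translation, full-length or DNA-binding domain only, were applied at about 100-200 nM and detected with fluorescent anti-GST. After masliner normalisation, the Universal PBM Analysis Suite scored each ungapped eight-base word together with its reverse complement by E-score.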

Sequence	PBM E-score
AACTTTTC	0.185
AGGGCCGG	-0.132
AACTGGGC	-0.0934
AAGTAGGG	-0.00371
CAACCTAC	0.066
ACAATTGT	0.0466
ACCTATGA	-0.21
CCCTATCA	-0.06
CGAGCGAC	-0.173
AAGCATCT	-0.0846
AGTAACCA	0.035
AACCACTC	0.0388
AATATCCG	0.00579
GTCAGTAA	-0.0544
AACTAACA	0.0419
CATCCCTA	-0.18
CCTACTGC	-0.156
GTCTACAC	-0.0612
ACCGGAAG	0.0939
AGAGCTAT	-0.234
ACAGGAAA	0.164
ACCTCGAA	0.121
ACATGATA	0.12
CCGGGGAC	-0.25
GTCTATCA	0.0622

Sequence	PBM E-score
ATTAGCCA	0.0809
ACGTAGCC	-0.363
ATTTAAGA	0.0744
ACATTACC	-0.119
GTACCCCA	-0.0685
CTACGTCC	-0.134
ACAGGGCT	-0.283
GGGCTTAC	0.0112
AAGGTGTG	0.0808
CCCCTCAA	0.0476
AATTCACG	0.0745
CATGGGCA	-0.114
GTGCAGCA	-0.228
GCCACCTA	-0.0287
AATCCAAA	0.14
CCCGTGGC	-0.139
AGGTTACA	0.0287
GCAAGTGA	0.0518
TAGGACAA	-0.189
ACAGAATA	0.0915
GAATACAC	-0.0531
GCTGTTCA	-0.183
ATGCCAAG	-0.0789
CCAACTCG	0.0213
ACGGGTTA	-0.29

Sequence	PBM E-score
CCCGAGGC	-0.0534
CTATGGCC	-0.193
CCTGCCGA	-0.0578
TCCATAGA	0.0463
GTACACTA	-0.182
TCACAAAA	0.271
CTTGTGTC	0.0731
CCCGGGAC	-0.0101
ACACACCC	-0.0126
TGGATAAA	0.135
ACGTATCC	-0.19
CGTTGTCC	0.13
CCCTGGAA	-0.294
AGCACGGA	-0.223
CATACCAC	-0.0801
CCGCGTGC	-0.187
AGGTTCAT	-0.0202
CGTAACTC	-0.151
AGAAGACC	-0.135
GATTAAAA	0.234
CACATGGC	-0.0321
AAGTTACA	0.204
ACAAATGG	0.181
CTGTACTA	0.0185
CTACACGC	-0.191

Sequence	PBM E-score
AGCTATCC	-0.177
TAGTGTGA	0.0481
AGTCGCGA	0.143
CGACTCAG	0.0362
AGGATCAA	0.101
ATAATCTG	-0.0844
AAATCCCT	-0.0174
ACCCCACC	0.373
CAAGATCA	-0.178
CTTTCTAA	0.0574
ATACCCCA	0.139
ACTTACTA	0.065
GGCCATAA	-0.0428
CCGGATAC	-0.099
AATACATC	0.156
AGCGGCTC	-0.0004
AATCTGGA	0.116
AATACGAC	-0.0208
CGAGAGAG	-0.0495
GGCGGCCC	-0.204
AACATTCA	0.0972
GTCGTTGA	-0.283
CCATTAGG	-0.313
CGAACGAG	-0.116
CATTATTA	0.228

Sequence	PBM E-score
CACCGCGG	0.0619
ACCTCACA	0.0386
ACCTCGAG	0.0675
CCTTAAAC	0.127
CGGACCGA	0.121
CAAAGGCG	-0.14
ATTGTGAA	0.184
TGGGGACA	-0.0566
GAGTCTCA	0.0444
AGACATTA	-0.00915
CAGCCCCA	0.0237
CCTATGAA	-0.0321
GGATACAA	0.00408
GCAAGGTA	-0.00401
GCAAACAC	-0.0961
CCCTCGGC	-0.0768
GAGTCTCC	-0.172
CAAATCTA	0.084
CTGTTCTC	-0.0358
CGCGAACC	-0.0421
CGACAAAG	0.0569
AAGTTTTC	0.0212
ATTCCTGC	-0.0553
GAATGAAC	0.016
AGGTAACA	0.204

Sequence	PBM E-score
GCAATCCC	0.0206
AAGCAGCG	0.0443
ACAGTCGA	-0.135
AAAAGAAA	0.249
GCACTACC	-0.0568
CAGAACGC	-0.125
GAACCCGA	-0.0553
AGCCCACG	-0.16
ACAACAGC	0.0715
CTGCTTAC	-0.0876
AAAGGGCA	-0.124
ATAAGACA	0.124
CAACTTCA	0.0197
TGGGAACA	0.0758
AGTTCTGA	-0.00185
CGCGTATC	0.134
AGGTAATC	-0.0724
ATTCCGGG	-0.0224
AGACGAAG	-0.147
CGACGATA	-0.104
AAATGCAA	-0.0878
AACGTGGA	0.0727
CATGAAGA	-0.0377
AAGGGAGT	-0.232
GTCCTATA	-0.103

Sequence	PBM E-score
GTGTCTAA	-0.0504
ACGACTTG	-0.0158
ACGCAAAG	-0.0571
AAAGTCCT	-0.0695
AGCTCAAG	-0.142
ACACTATG	-0.121
ACTTGTAT	0.143
GGGCAACC	-0.248
CCACCGAG	-0.0702
GCGCGAGC	-0.033
CTATAGGC	-0.127
CTTGAAAG	-0.0999
ATAGTCCA	-0.128
AGCATCAG	-0.0547
CATATTTC	0.13
CCGATTGC	0.114
CAACAATG	0.0944
CGTTCCCA	-0.253
CCCCATAG	-0.145
GTGGACAC	-0.0883
CCGTCGAA	0.0168
ACGAGGTA	-5e-05
AAATATTA	0.352
ATCAATCC	0.0719
CTAAGTCC	-0.178

Sequence	PBM E-score
GCACGCGA	-0.0629
GGGGTGAC	0.0481
CTGAGTTC	-0.0109
CTCACTCC	0.0526
TACCCAAA	0.161
CCGCAAAC	0.0207
AATTAAGC	0.202
CCTGAGTA	0.0732
CTTGGTGA	0.0651
GAATAAGA	0.0864
CTGGCCGC	0.0105
CTCAGTAA	-0.162
AGCGATGG	-0.128
AAATGCTG	0.0301
CACAGGCC	-0.051
GGGCACAC	-0.0766
CTGGAATC	0.0307
TCATTGAA	0.0621
GAGCGGGA	-0.0205
CATTTCGA	-0.046
AAATTATA	0.227
CATCTGGC	-0.104
CATAGCCC	-0.159
ATAAACTG	0.302
TAGAATAA	0.253

Sequence	PBM E-score
CCGGAAGG	-0.0255
AACTATGC	0.0607
CTTTAACC	0.0746
ACGTTGAG	-0.132
AAGCCAAA	-0.0889
GCATCTTA	0.0891
CGCAGAGC	-0.103
CTAACTGC	-0.113
AACCCCCC	-0.183
ATGCCCCC	-0.0837
AAAAGCGA	0.248
GTCCTTGA	-0.15
CCTATGCG	-0.073
AACCGTCG	-0.114
ATCCCGCA	0.126
CATCGTGC	-0.00012
CCATTACA	0.231
CGGAGCCA	-0.0291
GAGGGCAC	-0.234
ATTATAAG	0.123
GCTTAGGA	0.032
ACGGCAAA	0.277
AGCCCCCC	-0.242
CAATATCG	0.00591
ACCCTTTA	-0.0282

Sequence	PBM E-score
CCGAAAAC	0.0124
AAGACTGA	-0.0229
GAGACTAC	-0.186
ACATACAG	0.0443
CCAATTAC	0.161
AATGGTAG	0.174
GACCACAA	0.00676
GTCGCTGA	0.0069
CATCAAGG	-0.0881
GTACTAAC	0.146
CTCCGTGA	-0.0941
ACCTACAG	-0.0305
ATGTTTCG	0.366
CGTGGTAA	-0.0665
ATTTGTGC	0.0998
CCACCTGG	-0.129
ACCGCTAT	-0.0646
TAAGGAGA	-0.159
ATCCACCG	0.0495
CCCTTGAA	-0.0711
CAGACTGC	0.0705
GTGAATGA	0.0722
ACTTTGGG	0.0211
AAGGTACG	-0.181
AGAGATAG	-0.063

Sequence	PBM E-score
GCCGGGCA	-0.141
ATACTTGA	-0.122
TCTAAGAA	0.11
ACAATTAC	0.087
AGACCGCG	-0.0736
ACTCGTAG	-0.0901
GCCAGCGC	-0.00583
AACCCCTA	0.00675
AGTCAGAC	-0.142
GAAAATGC	0.017
CCTATCAG	-0.183
AGCCGATC	0.15
CAGATACC	-0.135
ATCAACGG	0.148
ACTGGTTG	0.0694
GCAATGCA	-0.0515
AGAGCCTG	-0.24
GGGGCGGA	0.404
TACACTCA	0.107
CATCCGGA	-0.123
ACCCACCA	0.0136
ATGTCGAA	0.0355
AGACTCAA	-0.12
CTAAAACA	0.355
CCTCGGTC	-0.103

Sequence	PBM E-score
CATTAGAG	-0.0419
CTTAGAAC	-0.126
AATGAATG	0.292
CGAATGGA	-0.00694
TGTTTTAA	0.364
CATACACA	-0.13
AATTAAAA	0.308
ATTCCCGA	0.17
ACGTTTAC	-0.072
GTCCACCA	-0.342
CAGTTTGG	-0.031
GCGTGAGC	-0.0363
CCTCTTTC	-0.0876
CATTACAC	0.0891
GGTTCTAA	0.0575
CGATATGC	0.0118
AAGTGGCG	-0.00032
CATTCTGG	-0.0361
CTGAAGGA	-0.0367
CTCTAACA	0.0177
CTCTAGTA	-0.0968
AATTCTTC	0.114
ACCACGAT	0.0269
GCTCGTGA	0.0372
AGTAGTCC	-0.103

Sequence	PBM E-score
AAAAGCAG	0.0867
GGTGATAC	0.0554
ACCGCGTC	-0.0299
TATCGTAA	0.161
AAAGGTTA	-0.0226
ACCGCCGC	0.0865
ATTAGCAA	0.154
CCGAGAGC	-0.0913
CTAACCTC	-0.0539
AGGCCCAT	-0.0986
GAGGCCCC	-0.18
AAAGGAAC	0.00662
GCGCCCAA	-0.061
TCTATAGA	-0.21
GCGAAACC	0.179
ACGGGTAA	-0.0262
CAGCTTGG	-0.044
GCATGGCA	0.0131
CACCGCAC	-0.00376
CTGCGTAC	-0.171
CCCAAGCC	-0.0593
AATCGATT	0.118
CAGCCACA	-0.00088
CTGGCACC	-0.177
CATGAACG	-0.128

Sequence	PBM E-score
AGTCTCAC	-0.0677
GGGGGCGA	-0.311
ATTATCAC	0.134
TATCTTAA	0.212
AATACGTA	0.153
CCAGATGA	0.0714
TAGGTCCA	-0.205
ACGGGAGC	-0.111
CACAGCAG	0.112
ATAAGGAC	-0.015
CAACGGTA	-0.109
ACACGTGC	-0.00451
ATCATGCA	-0.125
CTCAATTC	0.0654
CTCACGAG	-0.0739
AGAGGTTC	0.102
GCGAAACA	0.134
ACCATTGC	0.0901
CGAGTTAC	0.0926
